Experiment [1] has as its target T1, cynomolgus monkey CCR8 (cynomolgus monkey, UniProt G7NYJ2 1-355).
T1 construct: whole, on cells; also called c.CCR8; HEK293T-c.CCR8
In words: FACS on HEK293T-c.CCR8 cells.

In experiment [2] the target is T2, human CCR4 (human, UniProt P51679 1-360).
T2 construct: whole, on cells; also called h.CCR4; HEK293T-h.CCR4
T2 sequence (looked up): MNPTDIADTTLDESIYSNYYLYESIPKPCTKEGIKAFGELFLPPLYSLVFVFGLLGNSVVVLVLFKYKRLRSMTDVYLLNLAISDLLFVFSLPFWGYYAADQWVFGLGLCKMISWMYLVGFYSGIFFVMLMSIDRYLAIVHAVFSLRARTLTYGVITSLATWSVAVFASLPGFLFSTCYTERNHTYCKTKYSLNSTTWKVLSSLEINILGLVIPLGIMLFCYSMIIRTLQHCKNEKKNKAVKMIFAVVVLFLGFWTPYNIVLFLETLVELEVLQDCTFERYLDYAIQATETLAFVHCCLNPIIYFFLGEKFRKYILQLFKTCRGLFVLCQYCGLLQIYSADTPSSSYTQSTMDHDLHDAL
In words: FACS on HEK293T-h.CCR4 cells. The protocol:
The specificity of humanized monoclonal antibodies against human CCR4 was assessed using FACS. HEK293T-h.CCR4 cells were collected, washed, and resuspended in 1% BSA (in PBS). Each well of a 96-well V-bottom plate received 3×10\hat{ }5 cells, followed by the addition of the test antibodies at a final concentration of 20 μg/mL and incubation at 4° C. for one hour. After washing, 1 μL of fluorescent secondary antibody (Biolegend, Catalog No.: 410708) was added, and the mixture was incubated. The cells were washed and resuspended for detection using a flow cytometer (Beckman, Model: CytoFLEX).

Experiment [3] has as its target T3, human CCR8 (C-C chemokine receptor type 8) (human, UniProt P51685 1-355). In words: cell-based or functional assay.
For experiment [4], the target named is T3, human CCR8 (C-C chemokine receptor type …). Description: FACS on HEK293T-h.CCR8 cells, test 2 (anti-human Alexa Fluor 647 secondary antibody). On the procedure: (§1) The affinity of humanized monoclonal antibodies against human CCR8 was assessed using FACS. The experimental procedure was as follows: HEK293T-h.CCR8 cells were digested and collected by centrifugation, followed by three washes with pre-cooled PBS. The cells were resuspended in 1% BSA (in PBS), with 3×10\hat{ }5 cells added to each well of a 96-well V-bottom plate (50 μL per well). Prepare the antibody dilution series in 1% BSA (in PBS), starting from 40 μg/mL. Perform a 3-fold serial dilution across 10 concentration points. Add 50 μL per well to the cells, so that the final antibody concentration in the wells starts from 20 μg/mL. Mix thoroughly and incubate at 4° C. for 1 hour. The cells were collected by centrifugation, washed three times with pre-cooled PBS, resuspended in 50 μL 1% BSA (in PBS), and 1 μL of fluorescent secondary antibody (Biolegend, Catalog No.: 410708) was added to each well. The mixture was incubated at 4° C. for 30 minutes, followed by three washes with pre-cooled PBS. The cells were then resuspended in 200 μL PBS for detection.

The target is the same in experiment [5]. In words: FACS on HEK293T-h.CCR8 cells, test 1. On the procedure:
as §1

The EC50 is the midpoint of the concentration-response curve.

T3 sequence (P51685 whole entry): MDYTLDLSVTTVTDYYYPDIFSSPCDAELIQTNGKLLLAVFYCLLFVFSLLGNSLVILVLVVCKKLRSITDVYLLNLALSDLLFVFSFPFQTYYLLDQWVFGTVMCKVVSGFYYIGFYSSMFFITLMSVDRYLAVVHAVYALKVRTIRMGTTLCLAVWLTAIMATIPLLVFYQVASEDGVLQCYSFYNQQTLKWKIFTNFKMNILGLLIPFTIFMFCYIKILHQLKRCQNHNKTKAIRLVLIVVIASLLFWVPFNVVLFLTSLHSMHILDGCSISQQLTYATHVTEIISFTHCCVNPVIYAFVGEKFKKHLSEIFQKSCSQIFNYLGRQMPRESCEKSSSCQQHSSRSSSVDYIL
T1 sequence (G7NYJ2 entry or part of it): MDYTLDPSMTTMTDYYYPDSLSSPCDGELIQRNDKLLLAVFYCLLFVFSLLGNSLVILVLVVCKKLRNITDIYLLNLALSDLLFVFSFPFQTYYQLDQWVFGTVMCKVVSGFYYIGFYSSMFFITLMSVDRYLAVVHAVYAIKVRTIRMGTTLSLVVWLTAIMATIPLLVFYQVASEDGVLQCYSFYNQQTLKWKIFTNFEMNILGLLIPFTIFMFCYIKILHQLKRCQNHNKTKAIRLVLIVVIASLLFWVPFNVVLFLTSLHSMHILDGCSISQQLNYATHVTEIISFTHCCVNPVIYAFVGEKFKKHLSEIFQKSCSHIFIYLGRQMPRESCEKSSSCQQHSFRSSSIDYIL

B1: 13F3H6-hz (humanized anti-human CCR8 monoclonal antibody, human IgG1) (antibody)
heavy: EVQLVESGGGLVQPGESLRLSCAASGFTFNAYAMNWVRQAPGQGLEWVARIRTKSNNYATYYADSVKGRFTISRDDSKNTLYLEMNSLRAEDTAVYYCVRHKKVREGYAMDYWGQGTLVTVSS[left out - human IgG1 constant region]
light: DIVLTQSPASLVLSLGQRATISCRASKSVSTSGYTYMHWYQQKPGQPPKLLIYLASNLESGVPARFSGSGSGTDFTLNIHPVEEEDAATYYCQHSRELPFTFGSGTKLEIKRTVAAPSVFIFPPSDEQLKSGTASVVCLLNNFYPREAKVQWKVDNALQSGNSQESVTEQDSKDSTYSLSSTLTLSKADYEKHKVYACEVTHQGLSSPVTKSFNRGEC
notes: Copies of 2 follow from the IgG1 format
The molecule B1 returned an EC50 in experiment [1] of 0.221 µg/mL. Besides, the binding result in experiment [2] is “no binding (tested: 20 µg/mL)”. For the same molecule, in experiment [3], the “ADCC activity EC50” value was 0.00977 µg/mL; the “ADCP activity EC50” value is 0.112 µg/mL; the “Inhibition rate of CCL1-mediated cell migration (%) at 50 µg/mL, BaF3-h.CCR8 cells, Transwell” value is 68%. In experiment [4], this molecule displayed an EC50 of 0.0203 µg/mL. In experiment [5], the EC50 turned out to be 0.104 µg/mL.
